# Measurements from the supplement of paper PMC7826260.
# Some of the results follow. One pool of 16,384 single-stranded DNAs met each Rep nickase domain in vitro (3 µM enzyme, 1 h, 37 °C); shown is the middle of each 90-letter strand. A value is the log2 ratio of uncut reads to the pool without enzyme; more negative means more cut, near 0 not cut, and no call is made. Because reads are shares of a total, they shift together; values above 0 arise when much of the pool is cut.
# Assays:
# Experiment in all cases: uncleaved DNA left, log2 of reads against the no-enzyme library (log2 ratio); higher = less cleavage (more negative = more Rep cleavage of the k-mer); sequences stand for … in CTCGTCCG…ACCGGAGA
# [1] = system: T1, Rep nickase domain of Muscovy duck circovirus
# T1 sequence (protein, residues 1-111, tag omitted): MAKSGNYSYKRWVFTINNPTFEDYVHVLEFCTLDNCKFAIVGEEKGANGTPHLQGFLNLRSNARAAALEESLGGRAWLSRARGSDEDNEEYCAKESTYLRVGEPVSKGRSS
# Experimental: (§1)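 A pool of 90-nt single-stranded DNAs with seven random bases just before the constant AC of the nick site (name = the seven bases) was cut by 3 µM recombinant His6-SUMO-tagged Rep nickase domain (300 nM DNA, 50 mM HEPES pH 8.0, 50 mM NaCl, 1 mM MnCl2, 1 h, 37 °C, three replicates). Uncut DNA was amplified and sequenced.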
# [2] = system: T2, Rep nickase domain of banana bunchy top virus
# T2 sequence (protein, residues 1-94, tag omitted): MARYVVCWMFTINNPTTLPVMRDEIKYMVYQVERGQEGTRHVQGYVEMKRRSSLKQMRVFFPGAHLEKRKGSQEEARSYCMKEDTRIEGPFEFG
# Experimental: as §1
# [3] = system: T3, Rep nickase domain of cabbage leaf curl virus
# T3 sequence (protein, residues 1-116, tag omitted): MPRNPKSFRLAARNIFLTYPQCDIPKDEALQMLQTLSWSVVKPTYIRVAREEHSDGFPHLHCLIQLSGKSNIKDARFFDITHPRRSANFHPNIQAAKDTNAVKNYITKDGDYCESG
# Experimental: as §1
# [4] = system: T4, Rep nickase domain of chickpea chlorotic dwarf virus
# T4 sequence (protein, residues 1-124, tag omitted): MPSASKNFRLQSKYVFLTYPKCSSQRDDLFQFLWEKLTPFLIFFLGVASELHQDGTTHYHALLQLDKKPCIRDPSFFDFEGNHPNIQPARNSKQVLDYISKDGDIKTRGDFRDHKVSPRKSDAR
# Experimental: as §1
# [5] = system: T5, Rep nickase domain of faba bean necrotic yellows virus
# T5 sequence (protein, residues 1-98, tag omitted): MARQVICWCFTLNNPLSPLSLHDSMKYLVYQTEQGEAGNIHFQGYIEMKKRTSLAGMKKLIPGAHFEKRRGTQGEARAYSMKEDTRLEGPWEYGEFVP
# Experimental: as §1
# [6] = system: T6, Rep nickase domain of maize striate mosaic virus
# T6 sequence (protein, residues 1-117, tag omitted): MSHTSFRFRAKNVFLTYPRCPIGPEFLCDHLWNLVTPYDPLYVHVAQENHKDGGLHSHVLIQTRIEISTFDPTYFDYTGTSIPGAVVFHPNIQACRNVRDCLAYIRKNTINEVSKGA
# Experimental: as §1
# [7] = system: T7, Rep nickase domain of porcine circovirus 2
# T7 sequence (protein, residues 2-116, tag omitted): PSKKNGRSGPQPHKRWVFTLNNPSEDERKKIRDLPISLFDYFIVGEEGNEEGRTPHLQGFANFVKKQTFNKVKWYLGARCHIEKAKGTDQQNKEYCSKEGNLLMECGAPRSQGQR
# Experimental: as §1
# [8] = system: T8, Rep nickase domain of tomato golden mosaic virus
# T8 sequence (protein, residues 1-124, tag omitted): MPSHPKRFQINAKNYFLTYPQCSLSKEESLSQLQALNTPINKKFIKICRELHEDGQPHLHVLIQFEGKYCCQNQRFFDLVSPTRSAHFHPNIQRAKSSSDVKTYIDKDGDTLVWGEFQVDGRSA
# Experimental: as §1
# [9] = system: T9, Rep nickase domain of tomato yellow leaf curl virus
# T9 sequence (protein, residues 1-136, tag omitted): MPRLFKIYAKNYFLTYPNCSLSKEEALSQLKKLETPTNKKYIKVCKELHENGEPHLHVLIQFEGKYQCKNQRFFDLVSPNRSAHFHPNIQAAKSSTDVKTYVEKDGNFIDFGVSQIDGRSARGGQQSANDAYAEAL
# Experimental: as §1
# [10] = system: T10, Rep nickase domain of wheat dwarf virus
# T10 sequence (protein, residues 1-137, tag omitted): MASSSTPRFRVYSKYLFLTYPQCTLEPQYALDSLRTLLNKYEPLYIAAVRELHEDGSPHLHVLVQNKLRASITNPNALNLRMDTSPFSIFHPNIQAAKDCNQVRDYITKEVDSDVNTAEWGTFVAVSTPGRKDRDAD
# Experimental: as §1
Sequence,uncleaved DNA left (log2) [1],uncleaved DNA left (log2) [2],uncleaved DNA left (log2) [3],uncleaved DNA left (log2) [4],uncleaved DNA left (log2) [5],uncleaved DNA left (log2) [6],uncleaved DNA left (log2) [7],uncleaved DNA left (log2) [8],uncleaved DNA left (log2) [9],uncleaved DNA left (log2) [10]
TTAGTTT,0.0681,0.00454,0.0818,-1.95,0.122,0.133,-0.0375,0.0576,-0.0176,-0.0161
GGTATCA,0.0458,0.156,0.561,1.26,0.0785,1.93,0.101,0.0428,0.207,0.252
TGGCTCC,0.153,0.126,0.305,0.63,-0.0394,1.19,0.0219,-0.0246,0.11,0.0256
CCGGGAG,0.124,-0.0821,-0.128,0.232,-0.0959,-0.244,0.195,0.179,0.0216,0.114
GGCTTCC,0.0806,-0.0132,0.498,1.14,0.0471,1.8,0.111,0.0264,0.00141,0.162
CCGTCAC,-0.104,-0.0265,-0.00141,-0.146,-0.0633,-0.504,0.0187,-0.219,0.0447,-0.00597
ACTCTAG,-0.154,-0.107,-0.846,-0.464,-0.0975,-1.03,0.141,-0.0156,-0.0497,-0.0584
CTCGTGA,-0.0748,0.107,-0.229,-0.616,-0.107,-1.04,-0.0128,-0.108,-0.112,0.0513
ACTGCAC,-0.0806,-0.0823,-0.26,-0.225,0.0368,-0.778,-0.11,-0.0182,-0.164,-0.106
CGCGCTC,-0.187,-0.177,-0.218,-0.25,-0.164,-0.33,-0.0448,-0.0626,-0.139,-0.0248
GGGTTGC,0.0236,-0.0119,0.596,1.45,0.0634,1.51,0.221,0.0685,0.05,0.0172
CAGGTAG,0.0699,0.0381,-0.41,-0.428,0.177,-0.935,0.337,0.103,0.126,0.0392
CGGACAT,-0.0367,-0.0701,0.834,2.02,-0.0116,2.32,0.2,-0.226,-0.0578,0.146
GCATCGG,0.0597,0.0833,0.598,1.43,0.106,1.67,0.188,0.213,-0.0013,0.137
ATCGAAA,0.04,0.0651,0.00149,-0.118,0.103,-0.616,0.0363,0.0942,-0.0737,0.12
GTGTAAA,0.0111,0.127,0.328,1,0.118,1.88,0.158,0.15,0.106,0.125
CCCATGG,0.0559,0.0109,-0.279,-0.0989,-0.0859,-0.926,0.0998,-0.117,0.0247,0.00547
AGTGAGC,-0.00735,0.00757,-0.0848,0.169,-0.0474,-0.125,0.107,0.108,-0.0158,0.0495
GGTCGCA,0.0742,0.104,0.552,1.5,0.0466,1.75,0.0901,0.105,0.0235,0.096
AAACTCC,-0.0278,-0.0281,0.0689,-0.187,0.0894,0.718,0.156,0.0384,0.0399,0.142
CCCGTGC,-0.0641,-0.0661,-0.489,-0.564,0.0621,-0.924,0.141,-0.107,-0.0369,0.0628
TGTCTTC,0.0278,-0.172,0.277,0.375,-0.0185,0.754,0.0208,-0.123,-0.063,-0.107
CGCCTGT,0.019,0.00361,0.0319,0.54,-0.0142,1.27,0.0255,-0.152,0.0353,-0.00611
TTTCCCT,-0.734,-0.0578,-0.102,-2.24,-0.102,-0.464,-2.76,-0.241,-0.0169,-0.0667
ACTATGC,-0.0652,-0.0283,-0.708,-0.561,-0.0844,-1.18,0.0527,-0.0593,-0.0178,-0.138
AGCCACA,-0.00701,0.0953,0.203,0.0258,0.0766,0.762,-0.066,0.0676,0.0324,0.115
GTGTCTG,-0.0646,0.0321,0.0845,0.637,0.0138,1.21,0.0485,0.0321,-0.0205,0.068
TATGTGA,-0.0551,-0.0331,-0.358,-0.92,0.0762,-1.04,0.109,-0.125,-0.0462,0.0136
TGCAGTG,0.0159,-0.121,-0.524,-0.451,-0.00459,-0.864,0.0273,0.00602,-0.0521,-0.175
CTGCATC,-0.0672,0.0411,0.0404,-0.0724,-0.0417,-0.603,0.0378,-0.0584,-0.0636,0.00767
